# Laboratory results: paper PMC4336329 (PLoS ONE, 2015)
# Among all 310,000 compounds or so, about 2,200 (0.71%) showed an effect of 50% or more. Effects have a minus sign here. The list shows a part of the results.
# Target: human ether-à-go-go-related gene (hERG) potassium channel (human, UniProt Q12809)
# Assay: primary screen, population patch clamp on CHO cells stably expressing hERG
# Chain of human ether-à-go-go-related gene (hERG) potassium channel (Q12809 whole entry, looked up): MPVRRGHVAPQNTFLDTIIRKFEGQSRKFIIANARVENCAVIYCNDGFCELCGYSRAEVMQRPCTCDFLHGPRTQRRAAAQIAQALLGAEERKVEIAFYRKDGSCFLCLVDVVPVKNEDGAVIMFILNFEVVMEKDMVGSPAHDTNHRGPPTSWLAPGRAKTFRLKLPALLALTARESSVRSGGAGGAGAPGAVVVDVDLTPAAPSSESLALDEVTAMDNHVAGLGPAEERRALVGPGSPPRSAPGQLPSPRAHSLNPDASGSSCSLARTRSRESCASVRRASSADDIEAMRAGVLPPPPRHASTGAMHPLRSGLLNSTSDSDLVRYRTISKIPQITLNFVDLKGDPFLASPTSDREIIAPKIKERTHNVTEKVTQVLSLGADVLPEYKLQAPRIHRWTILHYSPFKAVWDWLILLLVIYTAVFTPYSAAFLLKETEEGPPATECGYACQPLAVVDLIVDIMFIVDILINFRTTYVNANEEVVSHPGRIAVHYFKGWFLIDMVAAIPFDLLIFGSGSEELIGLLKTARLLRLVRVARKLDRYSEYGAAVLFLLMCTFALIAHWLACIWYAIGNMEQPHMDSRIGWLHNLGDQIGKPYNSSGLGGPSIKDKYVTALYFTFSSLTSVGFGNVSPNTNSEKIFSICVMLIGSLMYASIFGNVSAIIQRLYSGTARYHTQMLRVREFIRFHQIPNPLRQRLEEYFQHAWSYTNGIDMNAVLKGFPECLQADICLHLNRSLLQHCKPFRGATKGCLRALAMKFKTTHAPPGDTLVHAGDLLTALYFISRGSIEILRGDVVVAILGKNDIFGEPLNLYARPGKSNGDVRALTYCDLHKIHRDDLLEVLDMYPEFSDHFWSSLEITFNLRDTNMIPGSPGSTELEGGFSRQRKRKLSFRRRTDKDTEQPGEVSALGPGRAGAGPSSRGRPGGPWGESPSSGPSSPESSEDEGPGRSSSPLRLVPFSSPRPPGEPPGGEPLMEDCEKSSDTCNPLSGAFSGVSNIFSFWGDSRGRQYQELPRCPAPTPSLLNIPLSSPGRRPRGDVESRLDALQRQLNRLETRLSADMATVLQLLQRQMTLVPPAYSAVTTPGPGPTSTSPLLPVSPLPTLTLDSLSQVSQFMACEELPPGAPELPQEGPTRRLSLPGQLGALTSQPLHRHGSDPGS
row,SMILES,"hERG current change (%, negative = inhibition) at 1uM [%]"
1,O=C(CCNC(=O)c1ccccc1Cl)Nc1ccc(S(=O)(=O)Nc2ncccn2)cc1,7.06
2,COc1ccc(SC[C@H](Cc2ccccc2)N2CC[C@@H](O)CCC2=O)cc1,7.19
3,Cn1c(SCCC#N)nnc1-c1ccccc1F,2.86
4,Cc1ccc(NC(=O)CCNS(=O)(=O)c2ccc3c(c2)oc(=O)n3C)cc1C,-5.43
5,COC(=O)C1=C(C(=O)OC)[C@@H]2N(C)c3ccc(OC)cc3[C@@]23C[C@@H](C(=O)OC)N(C(=O)c2cc(C)oc2C)C3=N1,2.97
6,COc1ccc(C(=O)c2c(C)oc3ccc(O)cc23)cc1,8.72
7,COC(=O)Cn1cc(C(=O)C2CC2)c2ccccc21,5.85
8,C/C(CC(=O)Nc1ccc2ccccc2c1)=N\NC(=O)c1cnccn1,1.84
9,CCN(C(=O)CSc1nccn1C)c1cccc2ccccc12,7.56
10,CC1CCC(NC(=O)Cn2c(=O)oc3ccccc32)CC1 (centres unmarked),7.33
11,CCN1C/C(=C/c2cccs2)c2nc3ccccc3c(C(=O)O)c2C1,8.53
12,C#CCOC(=O)CCCC(=O)Nc1ccccc1OC,9.23
13,O=C(C1CCCO1)N1CCN(S(=O)(=O)c2ccc(Br)cc2)CC1 (centres unmarked),11.5
14,CCOc1ccc(CCNC(=O)CN2C(=O)NC3(CCc4ccccc43)C2=O)cc1OCC (centres unmarked),-9.42
15,Cc1cc(-c2onc3ccc(Cl)cc23)ccc1O,19.7
16,CN(CC(O)COCc1ccc2c(c1)OCO2)C1CCCCC1.Cl (centres unmarked),-22.5
17,CCc1ccc(-c2cc3c(=O)n(CC(=O)NCCCN4CCC(Cc5ccccc5)CC4)nc(C)n3n2)cc1,16.5
18,COc1ccc(C(C#N)N2N=C(C)CC2c2ccccc2)cc1 (centres unmarked),4.86
19,c1ccc(CSC2=NNC(c3ccccn3)S2)cc1 (centres unmarked),15.7
20,CCOC(=O)C(Cc1ccccc1)C(=O)Nc1ccc(NC(=O)C(Cc2ccccc2)C(=O)OCC)cc1 (centres unmarked),-10.5
21,Cc1cc(C)nc(N/N=C2/CCCC/C2=C\c2ccccc2)n1,10.4
22,CCN(CC)S(=O)(=O)c1ccc(N2CCOCC2)c(NC(=O)CC23CC4CC(CC(Br)(C4)C2)C3)c1,3.31
23,CCN(CC)CC(O)COc1ccc2c(c1)OCO2.Cl (centres unmarked),-1.81

row,SMILES,"hERG current change (%, negative = inhibition) at 1uM [%]"
1,COc1ccc(/C=C(/NC(=O)c2ccccc2)C(=O)NCC2CCCO2)cc1 (centres unmarked),11.8
2,Cn1c(Cc2nc3ccccc3n2C)nc2ccccc21,7.78
3,Cc1ccc2[nH]c3c(Cl)ncnc3c2c1,13.1
4,CS(=O)(=O)N1CCC(C(=O)O)CC1,11.7
5,Fc1ccc(NC(=S)N2CCOCC2)c(F)c1,9.83
6,CS(=O)(=O)N(CC(=O)N1CCN(c2ccc(F)cc2)CC1)C1CCCCC1,-0.101
7,CC1CCN(S(=O)(=O)c2cccc(C(=O)N(C)C3(C)CCS(=O)(=O)C3)c2)CC1 (centres unmarked),10.8
8,Cc1ccccc1NS(=O)(=O)c1ccc(C(=O)NCC2CCCO2)cc1 (centres unmarked),0.609
9,C=CCc1c(OC)ccc2ccc(=O)oc12,9.89
10,COc1cccc(C2C=C(c3cccs3)Nc3ncnn32)c1OC (centres unmarked),13.4
11,CCCCN=C(C)c1c(O)c2ccccc2oc1=O,-1.59
12,COC(=O)c1sccc1S(=O)(=O)Nc1ccc(Cl)cc1,12.7
13,CN(C)c1ccc(/C=c2/sc3n(c2=O)NC2(c4ccccc4)N(C)C(=O)N(C)C2(c2ccccc2)N=3)cc1 (centres unmarked),2.12
14,CCN(CC)C(=O)N1CCN(S(=O)(=O)c2ccccc2)CC1,15.9
15,O=C(CCNC(=O)c1ccccc1)Oc1ccc([N+](=O)[O-])cc1,1.41
16,CCCCCOC(=O)CC(C(=O)OCCCCC)N1CCCCC1.Cl (centres unmarked),6.37
17,COc1ccc(CN2CC(C(=O)NCCCN3CCCCCC3)CC2=O)cc1 (centres unmarked),9.46
18,Cl.O=C(CCN1CCc2ccccc2C(c2ccccc2)C1)c1ccc2c(c1)OCCO2 (centres unmarked),6.25
19,c1csc(CN2CCOCC2)c1,10.1
20,O=C(COC(=O)C12CC3CC(CC(O)(C3)C1)C2)Nc1ccccc1OC(F)F,-5.36
21,O=C(NCC1CCCO1)c1ccc(CS(=O)(=O)c2ccc(Br)cc2)o1 (centres unmarked),0.33
22,Cc1ccccc1OCC(O)CN.Cl.O (centres unmarked),3.7
23,O=C(NC(Cc1ccccc1)C(=O)Oc1ccc2c(C(F)(F)F)cc(=O)oc2c1)OCc1ccccc1 (centres unmarked),11.1

row,SMILES,"hERG current change (%, negative = inhibition) at 1uM [%]"
1,CC(C)c1onc(C(=O)NC2CCCCC2)c1[N+](=O)[O-],9.82
2,Cc1ccc(NC(=O)CN(C)C(=O)CSc2nnc(C(F)(F)F)n2C)cc1,19.2
3,CCOc1ccc(N(CC(=O)N2CCCC2)S(=O)(=O)c2ccc(Cl)cc2)cc1,9.67
4,FC(F)(F)c1ccc(Cl)c(-n2c(-c3cc(-c4ccco4)[nH]n3)n[nH]c2=S)c1,14.3
5,Cc1ccc2nc(SCC(=O)c3ccc4c(c3)NC(=O)CO4)[nH]c2c1,7.24
6,CC(=O)N1CCc2cc(S(=O)(=O)NCC(=O)NCc3ccc(F)cc3)ccc21,14.5
7,Cc1cccc(N2CC(C(=O)Nc3nnc(SCc4ccccn4)s3)CC2=O)c1 (centres unmarked),9.91
8,N=c1c(C(=O)NCC2CCCO2)cc2c(=O)n3ccccc3nc2n1Cc1ccc(F)cc1 (centres unmarked),-82.7
9,O=C(CSc1nc2ccccc2s1)N1c2ccccc2Sc2ccc(Cl)cc21,11.7
10,CCOC(=O)N1CCC(NC(=O)c2cnn3c(C(F)(F)F)cc(-c4cccc(OC)c4)nc23)CC1,-12.5
11,C=CCNc1nc(C)nc(OC)n1,10.2
12,O=C(N/N=C\c1cc([N+](=O)[O-])ccc1N1CCOCC1)c1ccccn1,5.53
13,c1cn2cc(-c3ccc4c(c3)OCO4)nc2s1,8.59
14,c1ccc(Cn2ccnc2-c2ccco2)cc1,0.833
15,Cc1cc(NC(=O)NN2CCOCC2)nn1-c1c(Cl)cc(Cl)cc1Cl,13.1
16,Cl.OC(CN1CCOCC1)c1csc2ccccc12 (centres unmarked),15.3
17,CCN(CC)S(=O)(=O)c1ccc(NC(=O)CC(NC(C)=O)c2ccccc2)cc1 (centres unmarked),9.93
18,CCN(CC)c1ccc(NC(=O)c2cncc(Br)c2)cc1,5.66
19,COc1ccc(CNC(=O)CCN2C(=O)c3ccccc3C2=O)cc1,6.96
20,O=C(CNS(=O)(=O)c1cccc2nonc12)NCc1ccc(F)cc1,2.79
21,COc1ccccc1N(CC(=O)Nc1ccc(C(F)(F)F)cc1)S(C)(=O)=O,13.7
22,COc1ccc(-c2c(NCCc3ccccc3)c(=O)c2=O)cc1,11.5
23,Cc1ccc(N(C(=O)Cn2nnc(-c3ccc(C)o3)n2)C(C(=O)NC2CCCC2)c2ccncc2)cc1 (centres unmarked),3.36

row,SMILES,"hERG current change (%, negative = inhibition) at 1uM [%]"
1,O=C(c1ccc(Cl)c([N+](=O)[O-])c1)N(Cc1ccco1)C1CCS(=O)(=O)C1 (centres unmarked),3.95
2,COCCNC(=O)c1ccccc1NS(=O)(=O)c1ccc(C)c([N+](=O)[O-])c1,19.6
3,CS(=O)(=O)N1CCN=C1SCc1ccc(Br)cc1,11.9
4,COC(=O)C1=C(c2ccc(-c3ccccc3)c(F)c2)C[C@@H]2CC[C@H]1N2C(=O)N1CCOCC1,6.38
5,CC(C)n1ncc2c(C(=O)N3CCN(c4ccc(F)cc4)CC3)cc(-c3ccccc3)nc21,2.72
6,O=C(Nc1nccs1)c1cccc(S(=O)(=O)N2CCCCC2)c1,5.95
7,COc1ccc(NC(=O)n2nc(OC(=O)c3cccs3)cc2N)cc1,13.5
8,Cc1onc(-c2ccccc2)c1C(=O)Nc1sc2c(c1C(N)=O)CCC2,16.5
9,COc1ccc(NC(=O)c2oc3ccccc3c2NC(=O)C2CCCO2)cc1OC (centres unmarked),-7.45
10,COc1cc2nc(Nc3ccc(C)c(Cl)c3)nc(N)c2cc1OC.Cl,11.7
11,Cc1sc2c(c1C)C(c1ccc(C(C)(C)C)cc1)=NCC(=O)N2CC(=O)Nc1nccs1,-6.63
12,N#C/C=C(/N)c1ccc(Br)cc1,2.55
13,COc1ccccc1NC(=O)CN1CCN(CC(=O)Nc2ccc(S(N)(=O)=O)cc2)CC1,12.1
14,CNC(=S)NNc1ccccc1[N+](=O)[O-],15.1
15,CC(C)C(=O)Nc1nnc(S(=O)(=O)N2CCc3ccccc32)s1,0.94
16,Cc1c2c(nc3ccccc13)CCC(C(C)(C)C)C2.Cl (centres unmarked),6.34
17,O=C(c1ccc(Cl)c(S(=O)(=O)N2CCCC2)c1)N1CCN(c2ncccn2)CC1,9.96
18,Clc1nn2cnnc2c2ccccc12,4.75
19,Cc1[nH]n(-c2ccccc2)c(=O)c1N=Nc1nccs1,6.03
20,COc1ccc2cc(C(=O)Nc3ccccc3)sc(=O)c2c1OC,13.7
